According to PubChem BioAssay AID1508642 (National Center for Advancing Translational Sciences (NCATS), 2021):
Out of some 43,000 compounds screened, about 200 (0.47%) were called active. Inconclusive results (about 12%) are left out. Calls come from the whole dose curve; as a rule, active = well fitted cell-killing curve with a large enough effect; inconclusive = small, poorly fitted or top-dose-only effect, or effect the other way; inactive = flat fitted curve, though single readings scatter. Some of the results follow.

Experiment: Cell viability qHTS assay in S16 Pmp22-F2sN cells; note: nearly all actives have a fitted effect of over 65% in size
Settings: S16 Pmp22-F2sN Schwann cells viability, CellTiter-Glo, 24 h; series mostly up to 57.5 µM; activity change, negative = cytotoxicity: at the top concentration
How it was run: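 Viability was measured by CellTiter-Glo luminescence (15 min, room temperature). This followed 24 h at 37 °C of compound exposure (23 nL pin transfer) in S16 Pmp22-F2sN Schwann cells, 500-1,000 per well.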
% is set by controls: 0 for no effect and ±100 for the full control effect; potency is the fitted concentration of half-maximal effect.

| SMILES | activity change, negative = cytotoxicity | Potency |
| --- | --- | --- |
| COc1ccc(-n2nc(C(=O)N(C)c3cccc(C(F)(F)F)c3)c3c4ccccc4n(C)c3c2=O)cc1 | inactive: 23.8% |  |
| CCCNC(=O)C1CCC(Cn2c(=O)c3sccc3n(Cc3cccc(OC)c3)c2=O)CC1 (stereo not given) | inactive: 1.38% |  |
| CCC(C(=O)N1CCN(c2cccc(C)c2C)CC1)n1nc(C)c2sc3ccccc3c2c1=O (stereo not given) | inactive: -0.394% |  |
| Cc1nc2nc(NC(=O)c3cccc(Cl)c3)[nH]n2c(=O)c1Cc1ccccc1 | inactive: 1.56% |  |
| CCn1nnc2cc(C(=O)Nc3cccc(Cl)c3)ccc21 | inactive: -4.55% |  |
| O=S(=O)(c1ccc(Br)cc1)c1nc(-c2ccco2)oc1SCc1ccccc1Cl | inactive: -27.1% |  |
| Cc1ccc(CCNC(=O)c2nn(C)c3c2CSc2ccccc2-3)cc1 | inactive: -20.1% |  |
| CCCCOc1ccc(CNC(=O)CN2CCSc3ccccc32)cc1 | inactive: 22.5% |  |
| CCOC(=O)c1c(S(=O)(=O)N2CCC(C(=O)Nc3ccccc3OC)CC2)c(C)n(CC)c1C | inactive: -3.51% |  |
| COc1ccc(CCNC(=O)Cn2cc(C(=O)c3ccccc3)c(=O)c3ccc(C)nc32)cc1OC | inactive: 3.37% |  |
| CCOC(=O)C1CCC(CN(Cc2ccccc2)S(=O)(=O)c2ccc(Cl)cc2)CC1 (stereo not given) | inactive: -2.45% |  |
| COc1ccc(CCNC(=O)CCc2c(C)nc3c(c(C)nn3-c3ccc(C)c(C)c3)c2C)c(OC)c1OC | inactive: 0.662% |  |
| CCN1C(C(=O)c2ccccc2)=C(OC(=O)c2ccc(OC)cc2)c2ccccc2S1(=O)=O | inactive: -3.17% |  |
| CCc1cccc(C)c1NC(=O)Cn1cc2c(n1)CCCC2 | inactive: -4.81% |  |
| Cn1c(=O)c2c(-c3ccc(Br)cc3)n(CCc3ccccc3)cc2n(C)c1=O | inactive: -18.9% |  |
| Cc1ccc(NC(=O)c2oc3ccc(S(=O)(=O)N4CCCCC4)cc3c2C)cc1Cl | inactive: -9.89% |  |
| CCN(Cc1ccccc1)C(=O)CCc1c(C)nc2c(c(C)nn2-c2ccc(C)c(C)c2)c1C | inactive: 1.36% |  |
| Cc1ccc(-n2c(=O)c3c4c(sc3n(Cc3ccccc3C)c2=O)CCC4)cc1C | inactive: 3.63% |  |
| Cc1ccc(NC(=O)Nc2nnc(N(C)C3CCCCC3)s2)c(Cl)c1 | inactive: 2.75% |  |
| Cc1cc(C)c(/C=C/c2onc(C)c2S(=O)(=O)N2CCC(C(=O)N(C)Cc3ccccc3)CC2)c(C)c1 | inactive: -8.12% |  |

| SMILES | activity change, negative = cytotoxicity | Potency |
| --- | --- | --- |
| O=C(Nc1ccc2c(c1)OCO2)c1cc(-c2ccc(Br)cc2)on1 | inactive: -7.16% |  |
| Cc1ccccc1C(=O)Nc1nc2nc(-c3ccccc3)cc(=O)n2[nH]1 | inactive: 4.28% |  |
| CCC(C)(C)NC(=O)C1CCN(S(=O)(=O)c2c(C)noc2/C=C/c2ccc(C)cc2)CC1 | inactive: 18.4% |  |
| COc1ccc(NC(=O)C2=CC(c3ccc4c(c3)OCO4)=NS(=O)(=O)N2C)cc1 | inactive: -1.32% |  |
| COc1ccc(C)cc1NC(=O)C1COc2ccccc2C1 (stereo not given) | inactive: -6.22% |  |
| Fc1ccc(-n2cc(-c3ccccc3)c3c(NCCc4ccccc4)ncnc32)cc1 | inactive: -2.29% |  |
| CCc1ccc(NC(=O)Cn2c(=O)n(CCCCC(=O)NCCc3ccccc3)c(=O)c3ccccc32)cc1 | inactive: -1.25% |  |
| COc1ccc(C2c3c(oc4ccc(C)cc4c3=O)C(=O)N2CCCN2CCOCC2)cc1OC (stereo not given) | inactive: 15% |  |
| CCOC(=O)c1c(NC(=O)COc2c(C)cc(Cl)cc2Cl)sc2c1CCCC2 | inactive: -2.19% |  |
| COc1ccc(-c2noc(CC(=O)Nc3ccc(Br)cc3C)n2)cc1 | inactive: 9.98% |  |
| COc1ccc(S(=O)(=O)NCC(c2ccc(N(C)C)cc2)N2CCCC2)cc1 (stereo not given) | inactive: 0.325% |  |
| Cc1ccc2c(=O)cc(C(=O)Nc3ccc(S(=O)(=O)N(C)Cc4ccccc4)cc3)oc2c1C | inactive: 3.31% |  |
| COc1cccc(C(=O)NCc2cn3ccccc3n2)c1 | inactive: 16.7% |  |
| CCOc1ccc(OCC)c(NS(=O)(=O)c2c(C(=O)N3CCCCCC3)c(C)n(C)c2C)c1 | inactive: 14.6% |  |
| CCOc1ccc(C(=O)c2cn(CC(=O)Nc3ccc(F)cc3)c3cc4c(cc3c2=O)OCCO4)cc1 | inactive: 8.27% |  |
| O=C(CSc1nnc(-c2ccccc2)c(-c2ccccc2)n1)NC1CCCC1 | inactive: 4.3% |  |
| O=C(NCCCO)C(=O)NCC(c1ccc2c(c1)OCO2)N1CCOCC1 (stereo not given) | inactive: 0.99% |  |
| O=C(CSc1nc2ccccc2nc1Cc1ccc(Cl)cc1)N1CCCc2ccccc21 | inactive: -23.7% |  |
| CCOC(=O)c1c(C)c(C(=O)NCc2ccc(OC)cc2)c(C)n1CC | inactive: 3.07% |  |
| COc1ccc(NCc2cc3cc4c(cc3n(CC(=O)Nc3ccc(F)cc3)c2=O)OCCO4)cc1 | inactive: 24% |  |

| SMILES | activity change, negative = cytotoxicity | Potency |
| --- | --- | --- |
| COC(=O)C(C)Sc1nc2c(cnn2-c2ccc(F)cc2)c(=O)[nH]1 (stereo not given) | inactive: 19.2% |  |
| Cc1ccccc1N(C)S(=O)(=O)c1nnc(NC(=O)c2ccccc2F)s1 | inactive: -2.08% |  |
| COc1ccc(-n2ccnc2SCC(=O)Nc2nnc(C)s2)cc1 | inactive: -4.64% |  |
| CCOC(=O)Cn1c(=O)n(C2CCCCC2)c2nc(-c3ccc(CC)cc3)nc(C(N)=O)c21 | inactive: 1.06% |  |
| Cc1nc2ccccc2n2c(-c3ccccc3)c3c(=O)n(C)c(=O)n(C)c3c12 | inactive: 5.36% |  |
| Cc1cc(C)cc(NC(=O)Cn2c(=O)n(-c3cc(C)cc(C)c3)c(=O)c3oc4ccccc4c32)c1 | inactive: 11.6% |  |
| Cn1nc(C(=O)NCc2cccc(Cl)c2)c2c1-c1ccccc1S(=O)(=O)C2 | inactive: 6.5% |  |
| Cc1c(Cl)cccc1NC(=O)CCS(=O)(=O)c1ccc2c(c1)oc(=O)n2C | inactive: -29% |  |
| CN(c1ccccc1)S(=O)(=O)c1nnc(NC(=O)C2CCCCC2)s1 | inactive: 7% |  |
| COc1cccc(CNC(=O)CCn2nc(C)c3c(C)n(-c4ccccc4)nc3c2=O)c1 | inactive: -13.8% |  |
| COc1cccc(Cn2c(CNC(=O)CCc3ccccc3)nc3cccnc32)c1 | inactive: 2.01% |  |
| Cc1ccc(NC(=O)C(=O)NCCc2sc(-c3ccc(Cl)cc3)nc2C)cc1C | inactive: 9.62% |  |
| Cc1ccc(S(=O)(=O)NCCc2csc(-c3ccc(Cl)cc3)n2)cc1 | inactive: -10% |  |
| Cc1cc(C(F)F)n2nc(C(=O)Nc3cccc(Cl)c3C)nc2n1 | inactive: 4.17% |  |
| Cc1ccccc1OCC(=O)Nc1ccccc1C(=O)OCc1cc(=O)n2ccsc2n1 | inactive: 3.89% |  |
| Cc1nn(CCCC(=O)NCCc2ccc(Cl)cc2)c(=O)c2c1sc1ccccc12 | inactive: 7.67% |  |
| N=c1c(C(=O)NCC2CCCO2)cc2c(=O)n3ccccc3nc2n1CCCO (stereo not given) | inactive: 9.39% |  |
| COc1ccc(F)cc1S(=O)(=O)NCC(c1ccco1)S(=O)(=O)c1ccc(F)cc1 (stereo not given) |  | active: 15.8 µM |
| CCOc1cc(C(=O)NCCc2csc3nc(-c4ccccc4F)nn23)cc(OCC)c1OCC | inactive: 4.72% |  |
| COc1ccc(Cn2c(C(=O)O)c(CNCCc3ccco3)c3ccc(C)cc32)cc1 | inactive: -16.1% |  |
